According to the supplement of paper PMC12645437, “Orthogonal IMiD-Degron Pairs Induce Selective Protein Degradation in Cells” (ACS Chemical Biology, 2025):
The list shows a part of the results.

B1: Q9UKT9 (peptide)
chain: LQCEICGFFCTQKGNLLRHIKL
B2: Q9UKT9 (peptide)
chain: LCCNQCGFLCTQKGNLLRHIKL
B3: Q9UKT9 (peptide)
chain: FWCNQCGHMFTQKGNLLRHIKL
B4: Q9UKT9 (peptide)
chain: FGCEICGRQFTQKGNLLRHIKL
B5: Q9UKT9 (peptide)
chain: FDCEICGAVFTQKGNLLRHIKL
B6: Q9UKT9 (peptide)
chain: FICPICGRFFTQKGNLLRHIKL
B7: Q9UKT9 (peptide)
chain: FQCDQCGARFTQKGNLLRHIKL
B8: Q9UKT9 (peptide)
chain: FGCDICGAYFTQKGNLLRHIKL
B9: Q9UKT9 (peptide)
chain: FTCEICGHFFTQKGNLLRHIKL
B10: Q9UKT9 (peptide)
chain: FDCPICGARFTQKGNLLRHIKL
B11: Q9UKT9 (peptide)
chain: FECPVCGASFTQKGNLLRHIKL
B12: Q9UKT9 (peptide)
chain: FACNQCGRKFTQKGNLLRHIKL
B13: Q9UKT9 (peptide)
chain: FSCEVCGALFTQKGNLLRHIKL
B14: Q9UKT9 (peptide)
chain: LACPICGFRCTQKGNLLRHIKL
B15: Q9UKT9 (peptide)
chain: FMCNQCGRCFTQKGNLLRHIKL
B16: Q9UKT9 (peptide)
chain: FNCNQCGHSFTQKGNLLRHIKL
B17: Q9UKT9 (peptide)
chain: LACEICGFFCTQKGNLLRHIKL
B18: Q9UKT9 (peptide)
chain: FRCNQCGHWFTQKGNLLRHIKL
B19: Q9UKT9 (peptide)
chain: FECEQCGAFFTQKGNLLRHIKL
B20: Q9UKT9 (peptide)
chain: FQCDQCGAMFTQKGNLLRHIKL
B21: Q9UKT9 (peptide)
chain: FKCDVCGAVFTQKGNLLRHIKL
B22: Q9UKT9 (peptide)
chain: FDCEVCGATFTQKGNLLRHIKL
B23: Q9UKT9 (peptide)
chain: FCCDVCGAWFTQKGNLLRHIKL
B24: Q9UKT9 (peptide)
chain: LQCNQCGFACTQKGNLLRHIKL
B25: Q9UKT9 (peptide)
chain: LQCEICGFTCTQKGNLLRHIKL
B26: Q9UKT9 (peptide)
chain: FQCNQCGRYFTQKGNLLRHIKL
B27: Q9UKT9 (peptide)
chain: FDCEVCGAWFTQKGNLLRHIKL
B28: Q9UKT9 (peptide)
chain: FDCDICGAGFTQKGNLLRHIKL
B29: Q9UKT9 (peptide)
chain: LECPICGFICTQKGNLLRHIKL
B30: Q9UKT9 (peptide)
chain: FMCPICGRFFTQKGNLLRHIKL
B31: Q9UKT9 (peptide)
chain: FLCDICGAKFTQKGNLLRHIKL
B32: Q9UKT9 (peptide)
chain: FWCNVCGAKFTQKGNLLRHIKL

These sequences were tested against no compound (DMSO) (assay: log2 fold change of degron read counts, EGFP-low vs EGFP+ sorted cells; higher = lower degron-EGFP level without compound (poor expression or instability)). Settings: compound: DMSO control; 18 h.
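Also: jurkat cells carrying a lentiviral library of mutant zinc finger degrons fused to EGFP plus mCherry, mCherry+ cells FACS sorted, degron abundance counted by next-generation sequencing.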

Sequence	log2 fold change of degron read counts
B1	0.577
B2	1.36
B3	1.36
B4	-1.31
B5	-1.17
B6	0.63
B7	-1.89
B8	-0.67
B9	-0.887
B10	-0.889
B11	-0.688
B12	-0.046
B13	-1.06
B14	0.593
B15	-0.367
B16	-0.337

Sequence	log2 fold change of degron read counts
B17	1.39
B18	0.978
B19	-1.58
B20	-0.901
B21	-1.53
B22	-1.79
B23	-0.418
B24	0.27
B25	-0.977
B26	-0.129
B27	0.146
B28	-0.875
B29	0.301
B30	1.04
B31	-2.55
B32	-0.503
